This note sets out measurements from the RNAGym collection of RNA variant scans (doi:10.1093/nar/gkz1192).

The source gives no read counts; variants with many changes may rest on few reads.

B1: CPEB3 Ribozyme (parent)
chain: UAACAGGGGGCCACAGCAGAAGCGUUCACGUCGCAGCCCCUGUCAGAUUCUGGUGAAUCUGCGAAUUCUGCUGUAUAUCUC

The variants in this data set derive from B1. As to the kind of experiment: self-cleavage, relative activity (ratio to wild type); higher = more cleavage; in vitro, sequencing. The procedure, abridged:
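Libraries of CPEB3 self-cleaving ribozyme mutants came from rounds of error-prone PCR and carried barcodes, which DNA sequencing matched to variants. In vitro transcription used T7 RNA polymerase at 37°C for 5 hours, with a further 15 min in DNase I before EDTA stopped the reaction; the ribozymes cleaved during both steps. The RNA was reverse transcribed with template switching and sequenced on Illumina. Relative activity is the cleaved/total read fraction of a variant divided by that of the unmutated ribozyme, averaged over three batches with at least 5 reads.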
As to UAACAAGGGGCCCCAGCAGAAGCGUUCACGUCGCAGCCCCUGUCGGAUCCUGGUGAGUCUGCGAAUUCUGCUGUAUAUCUC [G6A A13C A45G U49C A57G], the self-cleavage was found to be 0.18.
The result for UAACAAGGGGCCGCAGCGGAAGCGUUCACGUCGCAGCCCUUGUCAGAUUCUGGUGAAUCUGCGAAUUCUGCUGUAUAUCUC [G6A A13G A18G C40U] reads 0.25.
UAACAAGGGGCCUCAGCAGAAGCGUACACGUCGCAGCCCCUGUCAGAUUCUGGUGAAUCUGCGAAUUCUGCUGUGUAUCUC [G6A A13U U26A A75G]: the self-cleavage was 0.12.
For UAACAAGGGGCCACUGCAGAAGCGUUCACGUCGCAGCCCCUGUCAGAUUCUGGUGAAUCUGCGAAUUCUGCUGUAUACCUC [G6A A15U U78C], the self-cleavage was determined as 0.31.
Consider UAACAAGGGGCCACAGCUGAAGCGUUCCCGUCGCAGCCCCUGUCAGAUUCUGGUGAAUCUGCGAAUUCUGCUGUAUAUCUC [G6A A18U A28C], for which the self-cleavage is 0.21.
The result for UAACAAGGGGCCACGGCAGAAGGGUUGACGUCGCUGCCCCUGUCAGAUUCUGGUGAAUCUGCGAAUACUGCUGUAUAUCUC [G6A A15G C23G C27G A35U U67A] reads 0.05.
The result for UAACUGGGGGCCACAGCAGAAGCGUUCACGUCGCAGCCCCUGUCAGAUUCUGGUGAAUCAGCGAAUUCUGCCGUAUAUCUC [A5U U60A U72C] reads 0.85.
The result for UAACUGGGGGCCACAGCAGAAGCGUUCACGUCGCAGCCCCUGUCAGAUUCUGGUGAAUCAGCGAAUCCUGCUGUAUAUCUC [A5U U60A U67C] reads 0.58; that for UAACAAGGGGCCACGGCAGAAGCGCCCACGUCGCAGCCCCUGUUAGAUUCUGGUGAAUCUGCGGAUUCUGCUGUAUAUCUC [G6A A15G U25C U26C C44U A64G], 0.05; that for UAACAAGGGGCCACGGCAGAAGCGUACACGUCGCAGCCCCUGUCAGAUUCUGGUGAAUCUGCGAAUUCUGCUGUACAUCUC [G6A A15G U26A U76C], 0.09.
As to UAACAAGGGGCCACCGCAGAAGCGUUCACGUCGCAGCCCCUGUCAGAUUCCGGUGAAUCUGCGAAUUCUGCUGUAUAUCUC [G6A A15C U51C], the self-cleavage worked out at 0.38.
The result for UAACUGGGGGCCACAGCAGAAGCGUUCACGUCGCAGCCCCUGUCAGAUUCUGGUGAAUCUGCGAAUUCAGCUGUAUAUCAC [A5U U69A U80A] reads 1.08; that for UAACAAGGGGCCUUAGCUGAAGCGUUGACGUCGCAGCCCCUGUCCGAUUCUGGCGAAUCUGCGAAUUCUGCUGUAUAUCUC [G6A A13U C14U A18U C27G A45C U54C], 0.06; that for UAACAAGGGGCCACAGCGGAAGCGUUCACGUCGCAGCCCCUGUCAGAUUCUGGUGAGCCUGCGAAUUCUGCUGUAUAUCUC [G6A A18G A57G U58C], 0.09.
The result for UAACUGGGGGCCACAGCAGAAGCGUUCACGUCGCAGCCCCUGUCAGAUUCUGGUGAAUCCGCGAAUUCUGCCGUAUAUCUC [A5U U60C U72C] reads 0.55.
The result for UAACAAGGGGCCACAGCUGAAGCUUUCACGUCGCAGCCCCUGUCAGAUUCUGGUGAAUCUGCGAAUUCUGCAGUAUAUCUC [G6A A18U G24U U72A] reads 0.11.
Regarding UAACAAGGGGCCGCAGCAGAAGCGUUCACGUCGCAGACCCUGUCAGAUUCUGGUGAAUCUGCGAAUUCUGCUGUAUAUCCC [G6A A13G C37A U80C], the self-cleavage is 0.08.
The result for UAACAAGGGGCCACGGCAGAAGCGUCCACGUCGCAGCCCCAGUCAGAUUCUGGUGGAUCAGCGAAUUCUGCUGUAUAUCUC [G6A A15G U26C U41A A56G U60A] reads 0.03; that for UAACUGGGGGCCACAGCAGAAGCGUUCACGUCGCAGCCCCUGUCAGAUUCUGGAGAAUCUGCGAUUUCUGCCGUAUAUCCC [A5U U54A A65U U72C U80C], 0.38.
The result for UAACAAGGGGCCUCAGCAGAAGCGUUCACGUCGAAGCCCCUGUCAGAUUCUCGUGAAUCUGCGAAUUCUGCUGUAUAUCUC [G6A A13U C34A G52C] reads 0.11; that for UAACAAGGGGCCACAGCGGUUGCGUUCACGUCGCAGCCCAUGUCGGAUUCCGGUGAAUCUGCGAAUUCUGCUGUAUAUCUC [G6A A18G A20U A21U C40A A45G U51C], 0.05; that for UAACUGGGGGCCACAGCAGAAGCGUUCACGUCGCAGCCCCUGUCAGAUUCCGGUGGAUCUGCGAAUUCUGCUGUAUACCUC [A5U U51C A56G U78C], 0.73.
The result for UAACAAGGGGCCCCAGCAGAAGCGUUCACGUCGCAGCCCCUGUCAGAUUCUGGUGAAUCUGCGAAUUCUGCUGUAUAUCCC [G6A A13C U80C] reads 0.42; that for UAACAAGGGGCCACAGCUGAAGCGUUCACGCCGCUGCCCCUGUCAGAUUCUGGCGAAUCUGCGAAUUCUGCUGUAUAUCUC [G6A A18U U31C A35U U54C], 0.15; that for UAACAAGGGGCCUCGGCAGAAGCGUUCACGUCGCAGCCCCUGUCAGAUACUGGUGAAUCUGCGUAUUCUGCUGUAUAUCUC [G6A A13U A15G U49A A64U], 0.04.
Consider UAACAAGGGGCCACGGCAGAAGCGUUCACGUCGCAGCCCCCGCCAGAUUCUGGUGAAUCUGCGAAUUCUGCUGAACAUCUC [G6A A15G U41C U43C U74A U76C], for which the self-cleavage was 0.12.
The result for UAACAAGGGGCCACAGCAGGAGCGUUCGCGUCGCGGCCCCUGUCGGAUUCUGGUGAAUCUGCGAAUACUGCUGUAUAUCUC [G6A A20G A28G A35G A45G U67A] reads 0.08; that for UAACAAGGGGCCACAGCAGGAGCGUUCGCGUCGCAGCCCCUGCCAGAUUCUGGUGAAUCUGCGAGCUCUGCUGUAUAUCUC [G6A A20G A28G U43C A65G U66C], 0.05; that for UAACAAGGGGCCUCAGCAGAGGCGUUCACGUCGCAGCCCCUGUCAGAUUCUGGUGAAUCUGCGAAUCCUACUGUAUAUCAC [G6A A13U A21G U67C G70A U80A], 0.08.
The result for UAACAAGGGGCCACUGCAGAAGCGUUCACUUCGCAGCCCCAGUCAGAUUCUGGUGGAUCUGCGAAUUCUGCUGUAAAUCUC [G6A A15U G30U U41A A56G U76A] reads 0.24; that for UAACAAGGGGCCACAGCCGAAGCGUUCACGCCGCAGCCCCUGUCAGAUUCCGGUGAAUCUGCGAAUUCUGCUGUAUGUCCC [G6A A18C U31C U51C A77G U80C], 0.21; that for UAACAAGGGGCCACAGCAGGAGCGUUCACGUCGCAGCCACUGUCAGAUUCUGGUGAAUCCGCGAAUCCUGCUGUAUAUCUC [G6A A20G C39A U60C U67C], 0.06.
The result for UAACUGGGGGCCACAGCAGAAGCGUUCACGUCGCAGCCCCUGUCAGAUUCUGGUGAAUCUGCGAAUCCUGCUGUAUAUCAC [A5U U67C U80A] reads 0.11; that for UAACUGGGGGCCACAGCAGAAGCGUUCACGUCGCAGCCCCUGUCAGAUUCGGGUGAAUCUGCGUAUUUUGCUGUAUAUCUC [A5U U51G A64U C68U], 0.28.
